Measured values taken from PubChem BioAssay AID2147 (National Center for Advancing Translational Sciences (NCATS), 2009).
Where “and” joins values, the source holds several entries; their conditions need not be identical. Equal values may be shown once. Screen size: about 230,000 compounds; about 3,600 (1.6%) were called active. The shares of active, inactive and inconclusive entries below differ from those in the screen. The call rests on the fitted dose curve; in most records, active means well fitted inhibition curve with a large enough effect (not every such curve was filed as active); inconclusive means small, poorly fitted or top-dose-only effect, or another doubt; inactive means no such curve, though single readings can be large or run the other way. Potencies beside an inconclusive call are fits to weak or partial responses and may not hold up.

Target: Lysine-specific demethylase 4E (Homo sapiens) (UniProt B2RXH2)
Assay: qHTS Assay for Inhibitors of Human Jumonji Domain Containing 2E (JMJD2E)
Settings: JMJD2E catalytic domain, FDH-coupled NADH fluorescence (FDH is formaldehyde dehydrogenase); series mostly up to 57.1 µM; activity change, negative = inhibition: at the top concentration
Further: nearly all actives have a fitted effect of over 50% in size.
Potency means the concentration at half of the fitted maximal effect; tags describe the fitted curve by direction and shape.
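Wherever activity change, negative = inhibition is given: 0% = wells with enzyme and -100% = buffer wells without enzyme.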

UniProt B2RXH2, sequence (B2RXH2 whole entry, looked up, the tested form may be a part): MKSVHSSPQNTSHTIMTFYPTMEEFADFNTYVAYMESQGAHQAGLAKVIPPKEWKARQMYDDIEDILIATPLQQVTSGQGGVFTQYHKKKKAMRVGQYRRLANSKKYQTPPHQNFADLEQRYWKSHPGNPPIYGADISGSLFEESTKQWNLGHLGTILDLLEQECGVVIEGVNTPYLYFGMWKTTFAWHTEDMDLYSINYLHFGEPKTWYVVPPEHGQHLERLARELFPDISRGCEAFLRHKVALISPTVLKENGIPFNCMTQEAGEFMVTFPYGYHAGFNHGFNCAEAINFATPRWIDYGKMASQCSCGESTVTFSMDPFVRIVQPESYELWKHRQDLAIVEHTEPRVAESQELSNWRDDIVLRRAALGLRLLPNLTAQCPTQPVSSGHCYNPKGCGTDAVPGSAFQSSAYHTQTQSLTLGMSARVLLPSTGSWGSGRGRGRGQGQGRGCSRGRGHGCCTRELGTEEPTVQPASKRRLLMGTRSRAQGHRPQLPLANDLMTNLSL

SMILES | Potency | activity change, negative = inhibition
COc1ccc(-c2ncccc2OC(=O)C23CC4CC(CC(C4)C2)C3)cc1 | inconclusive: 31.6 µM [inhibitor, partial curve] | 
CCC(=O)N1CCN(c2ccc(NC(=O)c3cc4ccccc4o3)cc2Cl)CC1 | inconclusive: 39.8 µM [inhibitor, single point] | 
Cc1cccc2cc(C(c3nnnn3CC3CCCO3)N3CCOCC3)c(=O)[nH]c12 (centres undefined) | inconclusive: 20 µM [inhibitor, partial curve] | 
COC(=O)Nc1nnc(-c2ccncc2)s1 | inconclusive: 28.2 µM [inhibitor, partial curve] | 
CC1CCC(C(C)C)C(OC(=O)CSc2nccc(=O)[nH]2)C1 (centres undefined) |  | inactive: -0.884%
Cc1cc(OCc2nn[nH]n2)c2c(C)c(Cc3ccccc3)c(=O)oc2c1 | inconclusive: 28.2 µM [inhibitor, partial curve] | 
COC(=O)C1=C(C)N(CCCC(=O)O)C(=O)NC1c1cc2c(cc1[N+](=O)[O-])OCO2 (centres undefined) | inconclusive: 15.8 µM [inhibitor, partial curve] | 
COCCNC(=O)CCCn1c(=O)c2cc(OC)c(OC)cc2n(CC(=O)Nc2ccccc2OC)c1=O | inconclusive: 31.6 µM [inhibitor, partial curve] | 
Cc1c(C(=O)NN2CCOCC2)nn(-c2ccc(Cl)cc2Cl)c1-c1ccc(I)cc1 | inconclusive: 39.8 µM [inhibitor, single point] | 
COc1ccc(/C(O)=C2/C(=O)C(=O)N(CCN3CCOCC3)C2c2ccccn2)cc1OC (centres undefined) | inconclusive: 25.1 µM [inhibitor, single point] | 
O=S(=O)(NCc1csc(-c2cccs2)n1)c1ccc(Cl)cc1 | inconclusive: 31.6 µM [inhibitor, single point] | 
Oc1ccc(N=Nc2ccc3c(c2)OCCO3)c2cccnc12 | inconclusive: 22.4 µM [inhibitor, single point] | 
COc1ccc(NS(=O)(=O)c2cccc(C(=O)N/N=C/c3cn(-c4ccccc4)nc3-c3ccc(OC)cc3)c2)cc1 | inconclusive: 28.2 µM [inhibitor, partial curve] | 
O=C(CSc1ccc(-c2ccco2)nn1)N1CCCCCC1 | inconclusive: 31.6 µM [inhibitor, single point] | 
CCOC(=O)C1CCN(Cc2oc(CO)cc(=O)c2O)CC1 |  | inactive: 3.81%
COCCCNC(=O)c1cc2c(-c3ccc(Cl)cc3)nn(C)c2s1 | inconclusive: 35.5 µM [inhibitor, partial curve] | 
COc1cccc(-c2nn(C)c3sc(C(=O)N4CCN(c5ccccn5)CC4)cc23)c1 | inconclusive: 35.5 µM [inhibitor, single point] | 
CC(=O)c1cccc(NS(=O)(=O)c2ccc(N/C=C\C(=O)c3ccc(F)cc3)cc2)c1 | inconclusive: 28.2 µM [inhibitor, partial curve] | 
COCCNC(=O)C(c1ccncc1)N(Cc1ccccc1)C(=O)Cn1nnc2ccccc21 (centres undefined) | inconclusive: 31.6 µM [inhibitor, single point] | 
COC(=O)c1ccc(C(=O)OC)c(NC(=S)N2CCN(c3ccc(F)cc3)CC2)c1 | inconclusive: 14.1 µM [inhibitor, partial curve] | 
Cc1ccc(NC(=O)COC(=O)Cc2csc(-c3cccc(F)c3)n2)cc1C |  | inactive: 8.22%
COC(=O)NC(NC(=S)Nc1ccccc1OC)C(Cl)(Cl)Cl (centres undefined) |  | inactive: 0.368%
Cc1cc(=O)oc2cc(OCC(=O)NCc3cccnc3)ccc12 | inconclusive: 28.2 µM [inhibitor, partial curve] | 

SMILES | Potency | activity change, negative = inhibition
CCC(=O)N(Cc1cc2ccccc2[nH]c1=O)C(C)C | inconclusive: 25.1 µM [inhibitor, single point] | 
N#Cc1ccc(CSc2nnc(NC(=O)c3ccc(=O)[nH]c3)s2)cc1 | inconclusive: 39.8 µM [inhibitor, single point] | 
C=C1c2cc(C)ccc2NC(=O)N1c1ccc(C)cc1 | inconclusive: 28.2 µM [inhibitor, single point] | 
COc1ccccc1N1CCN(/N=C\C(Br)=C\c2ccccc2)CC1 | inconclusive: 39.8 µM [inhibitor, single point] | 
Cc1c(NN=C(C#N)C#N)c(=O)n(-c2ccccc2)n1C |  | inactive: -15.1%
O/N=C1\CCCc2c1nc(-c1ccccc1F)n2O | inconclusive: 22.4 µM [inhibitor, partial curve] | 
Cc1ccc(NC(=O)/C=C/c2ccc(Cl)cc2)nc1 | inconclusive: 35.5 µM [inhibitor, single point] | 
O=C(CSc1nc(O)cc(=O)[nH]1)Nc1ccc2c(c1)CCC2 |  | inactive: -4.06%
COc1cc(C(=S)N2CCCCC2)ccc1OCC(=O)N1CCCC1 |  | inactive: 3.88%
CCCCOc1cc(C(=O)NCCN(CC)CC)c2ccccc2n1 | active: 22.4 µM and active: 31.6 µM | 
O=S(=O)(c1ccccc1)N(CC1CO1)c1cccc2ccccc12 (centres undefined) | inconclusive: 35.5 µM [inhibitor, single point] | 
Cc1ccn2c(NC(C)(C)C)c(-c3cccs3)nc2c1 | inconclusive: 28.2 µM [inhibitor, partial curve] | 
CN(C)c1ccc(NC2=C(Cl)C(=O)c3ccccc3C2=O)cc1 |  | inactive: 6.77%
Cc1cc[n+](C2=C([O-])c3ccccc3C(=O)/C2=N\S(=O)(=O)c2cccs2)cc1C | inconclusive: 15.8 µM [inhibitor, partial curve] | 
CCC/C=C(\CCC)C(NP(=O)(c1ccccc1)c1ccccc1)c1ccc(-c2ccccc2)cc1 (centres undefined) | inconclusive: 35.5 µM [inhibitor, single point] | 
Cc1ccc2nc(-c3ccccn3)cc(C(=O)NC3CCN(C)CC3)c2c1 | inconclusive: 11.2 µM [inhibitor, partial curve] | 
CCC/C=C(\CCC)C(NC(=O)c1ccco1)c1ccc(C(=O)OC)cc1 (centres undefined) |  | inactive: -4.08%
Cc1cc(C)c2c(N)c(S(=O)c3ccc(C(C)(C)C)cc3)sc2n1 (centres undefined) | inconclusive: 35.5 µM [inhibitor, single point] | 
CCOc1cc(/C=C2\C(=O)N(Cc3ccc(C)cc3)C(C)=C2C(=O)OC)ccc1O |  | inactive: 3.64%
COc1cc(OC)c2c(c1)OC(c1ccccc1)CC2=O (centres undefined) | inconclusive: 31.6 µM [inhibitor, partial curve] | 
Cc1ccccc1/C=N/Nc1nc2ccccc2c(=O)n1O | inconclusive: 25.1 µM [inhibitor, single point] | 
CCOc1ccc(N2C(=O)/C(=C/c3ccccc3)N=C2SC)cc1 | inconclusive: 3.16 µM [inhibitor, single point] | 
COC(=O)c1cccc(/C=N/NC(N)=S)c1O | inconclusive: 31.6 µM [inhibitor, partial curve] | 

SMILES | Potency | activity change, negative = inhibition
Cc1ccc(C)c2[nH]c(=O)c(C(c3nnnn3Cc3ccco3)N3CCc4ccccc4C3)cc12 (centres undefined) | inconclusive: 28.2 µM [inhibitor, partial curve] | 
CC1CCN(S(=O)(=O)c2ccc(NC(=O)CN3CCOCC3)cc2)CC1 |  | inactive: -2.69%
CC(C)CCNCC(=O)NC(c1ccccc1)c1ccccc1 | inconclusive: 17.8 µM [inhibitor, single point] | 
O=C(CSc1nnc(C2CC2)n1-c1ccccc1)NCc1ccco1 |  | inactive: 16.6%
N=C1/C(=C/c2coc3ccccc3c2=O)C(=O)N=C2SC(c3ccco3)=NN12 | inconclusive: 39.8 µM [inhibitor, single point] | 
COc1ccc(-c2[nH]c(-c3ccccc3)nc2SCC(=O)Nc2nccs2)cc1 |  | inactive: 2.86%
CCc1ccc(C2NC(=S)NC3=C2C(=O)CC(C)(C)C3)cc1 (centres undefined) | inconclusive: 39.8 µM [inhibitor, single point] | 
Clc1cccc(Oc2ncccn2)c1 |  | inactive: 6.92%
Cc1ccc(S(=O)(=O)c2cn(Cc3ccc(F)cc3)c3cc4c(cc3c2=O)OCO4)cc1 | inconclusive: 39.8 µM [inhibitor, single point] | 
C/C(=C\C(=S)Nc1ccccc1)Nc1ccc2ccccc2c1 | inconclusive: 35.5 µM [inhibitor, single point] | 
O=C(COc1ccc2ccccc2c1)N/N=C/c1ccccn1 |  | inactive: -20.6%
CCOC(=O)/C=C/C(=O)Nc1ccccc1-c1ccccc1NC(=O)/C=C/C(=O)OCC |  | inactive: -1.88%
Cc1nc2nc(-c3ccco3)nn2c(C)c1Cl | inconclusive: 31.6 µM [inhibitor, partial curve] | 
CC1(C)Cc2nc(N)c(C(=O)NCCO)cc2CO1 | inconclusive: 25.1 µM [inhibitor, partial curve] | 
Cc1ccc(N/C=C/C(=O)c2cccs2)cc1 |  | inactive: 6.98%
CCCc1ccc(-c2cc(C(=O)Nc3ccc([N+](=O)[O-])cn3)c3ccccc3n2)cc1 |  | inactive: 7.37%
COC(=O)c1cc(NC(=O)Cc2cc(OC)c(OC)c(OC)c2)cc(C(=O)OC)c1 | inconclusive: 28.2 µM [inhibitor, single point] | 
O=c1c2ccccc2c(C=NCc2ccccn2)c(O)n1-c1ccccc1 | inconclusive: 35.5 µM [inhibitor, single point] | 
CC1C2(C)OCC(C#N)(C(=N)O2)C1(C#N)C#N (centres undefined) | inconclusive: 28.2 µM [inhibitor, partial curve] | 
COc1cccc(N=Nc2c(=O)[nH]n3c(=O)c4c([nH]c23)CCC4)c1 |  | inactive: 5.61%
O=C(Nc1nc(-c2ccccn2)cs1)c1ccc([N+](=O)[O-])o1 | inconclusive: 28.2 µM [inhibitor, single point] | 
NC(=O)CN1CCOCCN(CC(N)=O)CCOCC1 | inconclusive: 31.6 µM [inhibitor, single point] | 
Cc1nn(Cc2ccccc2)c(Cl)c1C(=O)OC(C)C#N (centres undefined) |  | inactive: 10%
